The values that follow come from paper PMC9633759, “ATP-binding and hydrolysis of human NLRP3” (Communications Biology, 2022).

The series concerns the molecule itself. Put plainly: SEC; gel filtration of purified MBP-NLRP3 on Superose 6 10/300 GL (increase) in 20 mM HEPES pH 8.0, 150 mM NaCl, 1 mM TCEP; 4 °C stated for the mutants; self-association. (Size exclusion chromatography separates by hydrodynamic size, large species first.)

B1: human MBP-NLRP3 T233S (natural protein)
chain: not shown
notes: NLRP3, human, […], point mutant T233S; also called Walker A mutant T233S; not shown: MBP, N-terminal, kept
With B1, the binding result is given as “binds”.

B2: human MBP-NLRP3 C838S (natural protein)
chain: not shown
notes: NLRP3, human, […], point mutant C838S; not shown: MBP, N-terminal, kept
Consider B2, for which the binding result is “binds”.
